Here are results for 47 compounds from PubChem BioAssay AID1508642 (National Center for Advancing Translational Sciences (NCATS), 2021).

Each structure is given as a SMILES string. The campaign covered roughly 43,000 compounds. About 200 (0.47%) were called active. Inconclusive results (about 12%) are left out. Calls follow the shape of the dose curve; as a rule, active = well fitted cell-killing curve with a large enough effect; inconclusive = small, poorly fitted or top-dose-only effect, or effect the other way; inactive = flat fitted curve, though single readings scatter. The list shows a part of the results.
% is scaled to controls: 0 for no effect and ±100 for the full control effect.

This test in a line: Cell viability qHTS assay in S16 Pmp22-F2sN cells. Also: nearly all actives have a fitted effect of over 65% in size. The settings on record: S16 Pmp22-F2sN Schwann cells (luciferase reporters placed in the Pmp22 gene) viability, CellTiter-Glo, 24 h; series mostly up to 57.5 µM; activity change, negative = cytotoxicity: at the top concentration. An excerpt:
Assay Provider: Jim Inglese Ph.D. National Center for Advancing Translational Science, National Institutes of Health, Rockville, MD CMT is a heterogeneous group of neurological disorders that affect approximately 1 in 2,500 people. In particular, the most common form of CMT, CMT1A is genetically linked to the duplication of the PMP22 gene which leads to Schwann cell overexpression, thus manifesting itself as a typical case of dose-sensitive diseases. To identify small molecule compounds that can mediate the expression of PMP22 we developed a phenotypic assay screening strategy by utilizing genome editing techniques to construct Schwann cell lines containing novel reporter technology to monitor the transcriptional or translational regulation of PMP22. For high sensitivity we use a bioluminescent reporter system embedded in the 3' UTR of the PMP22 gene (S16(c9) Pmp22-F2sN) to identify compounds that inhibit gene expression. […] We can further discriminate the effect of all transcriptionally active molecules on PMP22 translation or stability with an assay that incorporates a short NLuc peptide (HiBiT) at the C-terminus of expressed PMP22 (S16(f8) PMP22-HiBiT) allowing alpha complementation and luminescence detection of membrane-associated PMP22 protein. These assays were screened against the NCATS Sytravon Library Collection. Miniaturization of these assays to 1536-well plate format for quantitative high throughput screening (qHTS) yielded rich data sets immediately from the qHTS assay (S16(c9) Pmp22-F2sN), when compared with data from a cell viability assay (Cell TiterGlo) to identify compounds that decreased the output signals through cellular toxicity to streamline the selection process of actives for subsequent characterization using the HiBiT assay (S16(f8) PMP22-HiBiT).
Cell viability assay in S16 Pmp22-F2sN cells PROTOCOL TABLE (format as described by Inglese J, Shamu CE and Guy RK. 2007) SEQUENCE No. (e.g., 1, 2, 3, etc.); […] (e.g., Cells, Incubation, Reagent, etc.); VALUE and DESCRIPTION. 1. Cells. Add 500-1,000 cells in 4 uL in growth media (DMEM High Glucose, No Phenol Red media + 10% heat-inactivated FBS + 1% Pen/Strep supplemented media) per well into Greiner 1536-well white/solid bottom high base, TC-treated plates. 2. Compounds. Library compounds and controls added at 23nL per well, transferred by Pin Tool. 3. Incubation. Incubate plates at 37C, 5% CO2, 95% RH for 24 h. 4. Reagent. Add 3uL CellTiter-Glo per well of Greiner 1536-well plates. 5. Incubation. Incubate plates at room temperature for 15 min., protect from light. 6. Detector. FLuc luminescence measured using CCD-based camera (Viewlux). NOTES (numbers refer to Sequence numbers above; values are from representative experiments) 6. Luminescence Read: Clear filter; Exposure = 1 sec, Gain = High, Speed = Slow, Binning = 2X REFERENCES: 1. Inglese J, Shamu CE and Guy RK, Reporting data from high throughput screening of small molecule libraries, Nature Chemical Biology, 2007, 3(8): 438-441. doi.org/10.1038/nchembio0807-438 2. Yasgar A, Shinn P, Jadhav A, Auld DS, Michael S, Zheng W, Austin CP, Inglese J and Simeonov A, Compound Management for Quantitative High-Throughput Screening. J. Assoc. Lab. Auto., 2008, 13: 79-89. doi: 10.1016/j.jala.2007.12.004
Background: In qHTS, concentration-response curves come from the screen itself.
For the compound `Cc1cccc(C)c1NC(=O)CCS(=O)(=O)c1ccc2c(c1)n(C)c(=O)c(=O)n2C`, the “activity change, negative = cytotoxicity” value was inactive: 4.26%. Take `Cc1cccc(-c2nc(C)c(CCNC(=O)C(=O)Nc3c(C)cc(C)cc3C)s2)c1`: the “activity change, negative = cytotoxicity” value was inactive: 11.8%. With `Cc1cc(SCC(=O)NCc2ccccc2Cl)nc(=O)[nH]1` the figure was inactive: -0.228%. To `COC(=O)c1ccccc1NC(=O)Cn1c(=O)cc(-c2ccccc2)c2c(C)nn(C)c21` belongs inactive: 3.17%; to `CCOC(=O)c1sc2ncn(CC(=O)Nc3cc(C)cc(C)c3)c(=O)c2c1C`, inactive: -5.72%. Consider `CCN(CC)C(=O)Cn1c(=O)n(CCCCCC(=O)Nc2ccccc2)c(=O)c2sccc21`, for which the “activity change, negative = cytotoxicity” value is inactive: 7.11%. With `O=C(NCc1ccccc1F)c1cc2ccccn2n1` the figure was inactive: -16.3%; with `CCOc1ccc2oc(=O)cc(CN3CCN(C(=O)c4cccc(Cl)c4)CC3)c2c1`, inactive: -2.44%; with `Cc1ccccc1C(=O)Nc1cccc(C(=O)OCc2cc(=O)n3c(C)csc3n2)c1`, inactive: -10.5%. Turning to `COc1ccc(CNC(=O)c2ccc(NC(=O)N3CCSc4ncccc43)cc2)c(OC)c1`, the “activity change, negative = cytotoxicity” value was inactive: 0.837%. With `Cc1ccc(C)c(Nc2nn3c(=O)c4ccc(C(=O)N(C)Cc5ccccc5)cc4nc3s2)c1` the figure was inactive: -0.834%. With `COc1ccc(NC(=O)c2cc(C(C)=O)n3ccccc23)cc1Cl` the figure was inactive: 14.4%; with `COc1ccc2c(CNCc3cccs3)c(C(=O)O)n(Cc3cccc(F)c3)c2c1`, inactive: -13.6%. With `COC(=O)c1ccccc1NC(=O)c1sc2nc(C)cc(C)c2c1NC(=O)c1ccccc1Cl` the figure was inactive: 12.8%. With `Cc1cc(/C=C(\C#N)C(=O)Nc2ccccc2)c(C)n1-c1ccc(F)cc1`, the “activity change, negative = cytotoxicity” value is inactive: -1.73%. With `COc1cc(NC(=O)c2nc(-c3ccc(Cl)cc3)n3c2CCCCC3)cc(OC)c1OC` the figure was inactive: -5.58%; with `O=C(Cc1ccccc1)Nc1sc2c(c1C(=O)Nc1ccccc1Cl)CCCC2`, inactive: 8.59%. For the compound `COc1ccc(CNC(=O)c2cc(C3CC3)nc3c2c(C)nn3-c2cccc(Cl)c2C)cc1`, the “activity change, negative = cytotoxicity” value was inactive: -0.257%. With `COc1ccc(OC)c(-c2nnc3n(CCc4ccccc4)c(=O)c4ccccc4n23)c1` the figure was inactive: 9.92%. In the case of `CCn1c(=O)n(-c2ccc3c(c2)OCO3)c2nc(-c3cc(OC)ccc3OC)nc(C(N)=O)c21`, the “activity change, negative = cytotoxicity” value is inactive: -6.31%.

In the case of `COc1ccc(CNC(=O)Cn2ccc3cc(S(=O)(=O)N4CCCC4)ccc32)c(OC)c1`, the “activity change, negative = cytotoxicity” value was inactive: -19.2%.

As to `CC(CNC(=O)c1ccc2nc(CCc3ccccc3)oc2c1)c1ccccc1` (configuration not stated), the “activity change, negative = cytotoxicity” value was inactive: 4.1%. With `COc1ccc(NC(=O)c2ncoc2-c2ccco2)cc1Cl` the figure was inactive: -6.16%. With `CCOC(=O)c1cccc(NC(=O)C2CCN(S(=O)(=O)c3c(C)noc3/C=C/c3ccc(C)cc3)CC2)c1` the figure was inactive: 13.1%; with `CCOC(=O)c1[nH]c(C)c(CCC(=O)NCc2ccc(OC(C)C)cc2)c1C`, inactive: -20.8%; with `COc1ccc(C)cc1NC(=O)C1CCN(S(=O)(=O)c2cccc3nonc23)CC1`, inactive: 13.8%.

With `COC(=O)c1ccccc1NC(=O)N(Cc1ccc(C)cc1)Cc1cccn1-c1nnc(N2CCCC2=O)s1`, the “activity change, negative = cytotoxicity” value is inactive: -0.778%.

Take `Cc1cccc(NC(=O)CSc2nnc3c4ccccc4n(C)c3n2)c1`: the “activity change, negative = cytotoxicity” value is inactive: 6.99%. Take `CCc1ccc(S(=O)(=O)c2cn(CC(=O)Nc3cccc(C)c3)c3ccc(Cl)cc3c2=O)cc1`: the “activity change, negative = cytotoxicity” value was inactive: -1.03%. Take `Cc1cc(Nc2cccc(O)c2)c2cccc(Br)c2n1`: the “activity change, negative = cytotoxicity” value is inactive: -5.99%. To `Cc1sc2ncn(CC(=O)Nc3ccc(C(F)(F)F)cc3)c(=O)c2c1S(=O)(=O)N1CCN(C)CC1` belongs inactive: -17.8%; to `COc1nnc(-c2ccc(N3CCCCC3)c(NC(=O)c3ccc(Cl)cc3)c2)c2ccccc12`, inactive: 3.48%. As to `COc1ccc(-c2cc(C(F)(F)F)nc(SCC(=O)Nc3ccc(C(C)=O)cc3)n2)cc1`, the “activity change, negative = cytotoxicity” value is inactive: 23.7%.

For `CCOC(=O)C1CCN(c2ncnc3c2c(-c2ccccc2)cn3-c2ccc(C)c(Cl)c2)CC1`, the “activity change, negative = cytotoxicity” value is inactive: -1.01%. To `CCc1cc(=O)[nH]c(SCc2nc(-c3ccccc3C)no2)n1` belongs inactive: 3.74%; to `Cc1cc(C)cc(N2C(=O)CS(=O)(=O)C23C(=O)N(Cc2ccccc2)c2ccccc23)c1` (configuration not stated), inactive: 6.08%. With `Cc1cc(OCC(=O)Nc2ncn[nH]2)c(C)c(C)c1Br` the figure was inactive: 3.42%. With `CCC(=O)N1c2ccc(S(=O)(=O)NCCc3ccccc3)cc2CC1C` (configuration not stated) the figure was inactive: -6.74%. Consider `COc1ccc(OC)c(NC(=O)c2nc(SCc3ccc(F)cc3)ncc2Cl)c1`, for which the “activity change, negative = cytotoxicity” value is inactive: 2.49%. To `O=C(NCCc1csc(-c2ccc(F)cc2)n1)C(=O)Nc1ccc(Cl)cc1` belongs inactive: 0.774%; to `CCC(C)NC(=O)C1CCN(S(=O)(=O)c2ccc3c(ccn3CC)c2)CC1` (configuration not stated), inactive: -7.86%; to `Cc1nc2c(C(=O)NCCC(C)C)cnn2c(C)c1Cc1c(F)cccc1Cl`, inactive: -3.57%. With `COc1ccc2c(c1)c1c(c(=O)n(-c3ccc(C)cc3)c(=O)n1CC(=O)Nc1cc(C)ccc1C)n2C` the figure was inactive: 5.88%; with `CC1CCCN(Cc2c(O)ccc3c(=O)c(-c4ccc(Cl)cc4)c(C(F)(F)F)oc23)C1` (configuration not stated), inactive: 23.3%; with `COc1cc2c(cc1OC)C(c1cc(OC)c(O)c(OC)c1)CC(=O)N2` (configuration not stated), inactive: 4.97%. With `COc1cccc2sc(N(Cc3cccnc3)C(=O)c3ccc(S(=O)(=O)N(C)C)cc3)nc12` the figure was inactive: -23.9%; with `O=C(O)c1ccccc1NC(=O)N1c2ccccc2Sc2ccccc21`, inactive: 4.27%.
